The record followed here is PubChem BioAssay AID2202238 (Ras Initiative Chemistry Research Team, Frederick National …, 2025).

The experiment has as its target GTPase KRas (Homo sapiens) (UniProt P01116). The experiment in a line: Covalent labelling of cysteine mutants by fragments, read by mass spectrometry (AID 2202238). Conditions: KRAS G12D cysteine mutants, disulfide tethering, MALDI-TOF labeling, stronger effect = higher value, fragment at 500 µM. More on the design: protein at 5 µM with 500 µM competing thiol for 1.5 h.
The mark [1] stands for this setting: measured here: G75C mutant labeling.
Where [2] appears, read: measured here: H94C mutant labeling.
The mark [3] stands for this setting: measured here: I36C mutant labeling.
Setting [4] is: measured here: L120C mutant labeling.
Where [5] appears, read: measured here: M67C mutant labeling.
[6] abbreviates: measured here: M72C mutant labeling.
[7] abbreviates: measured here: N86C mutant labeling.
[8] abbreviates: measured here: P121C mutant labeling.
Where [9] appears, read: measured here: S122C mutant labeling.
Where [10] appears, read: measured here: S136C mutant labeling.
The mark [11] stands for this setting: measured here: G60C mutant labeling.
Setting [12] is: measured here: N26C mutant labeling.

This is one part of the list. The main result of the screen is listed elsewhere. These columns were measured beside it and carry no call.

Chain of UniProt P01116 (P01116 whole entry, looked up, the tested form may be a part): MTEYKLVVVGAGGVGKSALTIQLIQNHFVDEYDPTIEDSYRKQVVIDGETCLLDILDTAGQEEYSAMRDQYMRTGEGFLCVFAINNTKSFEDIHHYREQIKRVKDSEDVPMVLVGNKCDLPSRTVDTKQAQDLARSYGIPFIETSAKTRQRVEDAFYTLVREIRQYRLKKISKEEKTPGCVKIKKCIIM

For `N#CC1CN(C(=O)CCS)CC12C(=O)Nc1ccccc12` (stereo unspecified), the percent labeling runs as follows: under setting [1], 14.7%; under setting [2], 35.7%; under setting [3], 41.2%; under setting [4], 29.5%; under setting [5], 49.6%; under setting [6], 52.3%. The percent labeling came out at 27% under setting [7], 37% under setting [8], 29.5% under setting [9] and 56.5% under setting [10].
For `O=C(CCS)NCCNC(=O)c1ccc(F)cc1`, the percent labeling under setting [1] amounted to 11%; the percent labeling under setting [2] was 30.7%; the percent labeling under setting [3] came to 39.3%; the percent labeling under setting [4] worked out at 30%; the percent labeling under setting [5] is 32%; the percent labeling under setting [6] stood at 21.3%. Moreover, the percent labeling under setting [7] is 14.5%, the percent labeling under setting [8] came to 36.2%, the percent labeling under setting [9] amounted to 34.5% and the percent labeling under setting [10] stood at 44.3%.
Regarding `O=C(NCCS)c1c(Cl)cccc1OCC1CC1`, the percent labeling is, setting by setting: under setting [11], 52.8%; under setting [1], 17.6%; under setting [2], 36.3%; under setting [3], 21.6%; under setting [4], 30.5%; under setting [5], 30.1%. For the same compound, the percent labeling under setting [6] worked out at 27.3%; the percent labeling under setting [12] worked out at 41%; the percent labeling under setting [7] came out at 27.8%; the percent labeling under setting [8] stood at 28.2%; the percent labeling under setting [9] was found to be 24.7%; the percent labeling under setting [10] was found to be 37.7%.
With `CCOc1cccc2[nH]c(C(=O)NCCS)cc12`, the percent labeling turned out to be 10.9% under setting [11]; 11.8% under setting [1]; 10.7% under setting [2]; 12.1% under setting [3]; 15.2% under setting [4]; 6.8% under setting [5]. The percent labeling by setting is: under setting [6], 27.3%; under setting [12], 24%; under setting [7], 8.8%; under setting [8], 9.5%; under setting [9], 10.7%; under setting [10], 15.5%.
Regarding `CN(C)Cc1nnc(C2CCCCN2C(=O)CCS)o1` (stereo unspecified), the percent labeling by setting is: under setting [1], 6.2%; under setting [2], 26.1%; under setting [3], 34.9%; under setting [4], 26.2%; under setting [5], 34.9%; under setting [6], 12.3%. The percent labeling by setting is: under setting [7], 21.2%; under setting [8], 27.3%; under setting [9], 23.2%; under setting [10], 43.7%.
Turning to `O=C(NCCS)C(c1ccccc1)n1sc2ccccc2c1=O` (stereo unspecified), the percent labeling was found to be 48.4% under setting [11]; 11.7% under setting [1]; 20.2% under setting [2]; 18.9% under setting [3]; 16.2% under setting [4]; 16.2% under setting [5]. Besides, the percent labeling reads like this: under setting [6], 31.1%; under setting [12], 25.9%; under setting [7], 10.7%; under setting [8], 12.7%; under setting [9], 9.8%; under setting [10], 22.2%.
`O=C(CCCc1ccc2c(c1)OCCCO2)NCCS` registered a percent labeling under setting [11] of 42.4%; a percent labeling under setting [1] of 18%; a percent labeling under setting [2] of 31.1%; a percent labeling under setting [3] of 24%; a percent labeling under setting [4] of 37.5%; a percent labeling under setting [5] of 27.4%. Further, the percent labeling under setting [6] stood at 36.2%; the percent labeling under setting [12] is 34.2%; the percent labeling under setting [7] came to 21.2%; the percent labeling under setting [8] amounted to 25.9%; the percent labeling under setting [9] turned out to be 26.7%; the percent labeling under setting [10] came to 46.2%.
As for `O=C(CCS)Nc1ccnn1Cc1ccc(Br)s1`, the percent labeling was 11.1% under setting [1]; 27.2% under setting [2]; 21.9% under setting [3]; 15.6% under setting [4]; 26.2% under setting [5]; 41.9% under setting [6]. This compound also returned a percent labeling under setting [7] of 19.1%, a percent labeling under setting [8] of 9.6%, a percent labeling under setting [9] of 11.9% and a percent labeling under setting [10] of 40.1%.
Compound `CCN1C(=O)CO[C@H](C(=O)NCCS)[C@H]1c1ccccc1` had a percent labeling under setting [11] of 36.2%; a percent labeling under setting [1] of 9.9%; a percent labeling under setting [2] of 25.7%; a percent labeling under setting [3] of 19.2%; a percent labeling under setting [4] of 21.1%; a percent labeling under setting [5] of 25.2%. The percent labeling turned out to be 16% under setting [6]; 25.3% under setting [12]; 16.5% under setting [7]; 25.7% under setting [8]; 20.1% under setting [9]; 35.4% under setting [10].
Turning to `CCC(C)C(=O)N1Cc2ccccc2CC1C(=O)NCCS` (stereo unspecified), the percent labeling by setting is: under setting [11], 25.5%; under setting [1], 7.5%; under setting [2], 18%; under setting [3], 12.1%; under setting [4], 30.3%; under setting [5], 12.7%. In addition, the percent labeling stood at 14.4% under setting [6]; 17.9% under setting [12]; 9.4% under setting [7]; 15.7% under setting [8]; 11.1% under setting [9]; 25.9% under setting [10].
For `CCc1nnc(NC(=O)C(C)C(C)NC(=O)CCS)s1` (stereo unspecified), the percent labeling is, setting by setting: under setting [1], 14.5%; under setting [2], 38.5%; under setting [3], 45%; under setting [4], 36.6%; under setting [5], 39.3%; under setting [6], 30.5%. In addition, the percent labeling reads like this: under setting [7], 41.4%; under setting [8], 40.3%; under setting [9], 33.4%; under setting [10], 57.4%.
With `O=C(Cc1cc(Cl)cc2c1OCC2)NCCS`, the percent labeling was 46.8% under setting [11]; 23.2% under setting [1]; 33.2% under setting [2]; 27.4% under setting [3]; 37.9% under setting [4]; 28.4% under setting [5]. The compound further showed a percent labeling under setting [6] of 42.6%; a percent labeling under setting [12] of 30.4%; a percent labeling under setting [7] of 16.7%; a percent labeling under setting [8] of 23.7%; a percent labeling under setting [9] of 21.5%; a percent labeling under setting [10] of 36.4%.
Turning to `O=C(NCCS)C1CCCn2cc(C(F)(F)F)nc21` (stereo unspecified), the percent labeling runs as follows: under setting [11], 30.5%; under setting [1], 11.4%; under setting [2], 33.8%; under setting [3], 32.5%; under setting [4], 43.3%; under setting [5], 27%. Also, the percent labeling came to 20.6% under setting [6]; 33.4% under setting [12]; 32% under setting [7]; 30.7% under setting [8]; 30.2% under setting [9]; 37.5% under setting [10].
